Measured values as given in a collection of fitness landscapes (doi:10.1126/science.1257360).
This is one part of the list.

B1: PhoQ; a variant is named by its letters at X, in order, P23837 (parent)
chain: MKKLLRLFFPLSLRVRFLLATAAVVLVLSLAYGMVALIGYSVSFDKTTFRLLRGESNLFYTLAKWENNKLHVELPENIDKQSPTMTLIYDENGQLLWAQRDVPWLMKMIQPDWLKSNGFHEIEADVNDTSLLLSGDHSIQQQLQEVREDDDDAEMTHSVAVNVYPATSRMPKLTIVVVDTIPVELKSSYMVWSWFIYVLSANLLLVIPLLWVAAWWSLRPIEALAKEVRELEEHNRELLNPATTRELTSLVRNLNRLLKSERERYDKYRTTLTDLTHSLKTPLXXLQXXLRSLRSEKMSVSDAEPVMLEQISRISQQIGYYLHRASMRGGTLLSRELHPVAPLLDNLTSALNKVYQRKGVNISLDISPEISFVGEQNDFVEVMGNVLDNACKYCLEFVEISARQTDEHLYIVVEDDGPGIPLSKREVIFDRGQRVDTLRPGQGVGLAVAREITEQYEGKIVAGESMLGGARMEVIFGRQHSAPKDE

Variants of: B1
Test: enrichment ratio after two sorts for PhoP signalling (ratio (wild type AVST 3.29)); higher = more functional
Conditions: with PhoP (E. coli)
HRKA gave an enrichment ratio of no more than 0.25. GFTP gave an enrichment ratio of no more than 0.25. For PAKS, the enrichment ratio was no more than 0.25. EQDS showed an enrichment ratio of no more than 0.25. In the case of SNNK, the enrichment ratio is reported as no more than 0.25. With YMAR the enrichment ratio was no more than 0.25. For EIVD, the enrichment ratio was no more than 0.25. Work on CSAP yielded an enrichment ratio of no more than 0.25. For ENPF, the enrichment ratio was no more than 0.25. Work on YSIQ yielded an enrichment ratio of no more than 0.25. For EPHI, the enrichment ratio was no more than 0.25. HLGN gave an enrichment ratio of no more than 0.25. Variant GHEP has an enrichment ratio of no more than 0.25. Work on VINW yielded an enrichment ratio of no more than 0.25. For VYWV, the enrichment ratio was no more than 0.25. Variant HAAY has an enrichment ratio of no more than 0.25. For NAKT, the enrichment ratio was no more than 0.25. Variant YSNY has an enrichment ratio of no more than 0.25. For KGQA, the enrichment ratio was no more than 0.25. Variant LFNI has an enrichment ratio of no more than 0.25. MRHG was tested, and the enrichment ratio was no more than 0.25. MYDC showed an enrichment ratio of no more than 0.25. AKWE gave an enrichment ratio of no more than 0.25. For FGFE, the enrichment ratio was no more than 0.25. PIFF gave an enrichment ratio of no more than 0.25. NREH gave an enrichment ratio of no more than 0.25. Variant QIGF has an enrichment ratio of 12.5. With LFLI the enrichment ratio was 0.396. Variant EMFS has an enrichment ratio of no more than 0.25. For LHFK, the enrichment ratio was no more than 0.25. PWID showed an enrichment ratio of no more than 0.25. Variant PVTE has an enrichment ratio of no more than 0.25. In the case of FSYV, the enrichment ratio is reported as no more than 0.25. Variant HTYC has an enrichment ratio of no more than 0.25. IHTQ showed an enrichment ratio of no more than 0.25. Work on PKWE yielded an enrichment ratio of no more than 0.25. DYHT gave an enrichment ratio of no more than 0.25. With FPCT the enrichment ratio was no more than 0.25. NAYW was tested, and the enrichment ratio was no more than 0.25. Variant KMWS has an enrichment ratio of no more than 0.25. For ENAM, the enrichment ratio was no more than 0.25. PANS gave an enrichment ratio of no more than 0.25. Variant AGGC has an enrichment ratio of 6.35. QLKL showed an enrichment ratio of no more than 0.25. In the case of WMPK, the enrichment ratio is reported as no more than 0.25. RCNL gave an enrichment ratio of no more than 0.25. In the case of DYPC, the enrichment ratio is reported as no more than 0.25. DYYF was tested, and the enrichment ratio was no more than 0.25. In the case of ISMK, the enrichment ratio is reported as no more than 0.25. RGMR was tested, and the enrichment ratio was no more than 0.25. With GAMR the enrichment ratio was no more than 0.25. CHGY showed an enrichment ratio of no more than 0.25. FVYI gave an enrichment ratio of no more than 0.25. With VGQS the enrichment ratio was no more than 0.25. DQYF gave an enrichment ratio of no more than 0.25. LYRL was tested, and the enrichment ratio was no more than 0.25. NWRQ gave an enrichment ratio of no more than 0.25. Variant YDYA has an enrichment ratio of no more than 0.25. AMFT showed an enrichment ratio of no more than 0.25. In the case of TNGT, the enrichment ratio is reported as 2.2. Variant RGTW has an enrichment ratio of no more than 0.25. With HNYC the enrichment ratio was no more than 0.25. In the case of NTGQ, the enrichment ratio is reported as no more than 0.25. In the case of KRHW, the enrichment ratio is reported as no more than 0.25. NNFS gave an enrichment ratio of no more than 0.25. In the case of MWSQ, the enrichment ratio is reported as no more than 0.25. TQSS was tested, and the enrichment ratio was 6.45. Variant KNYA has an enrichment ratio of no more than 0.25. Variant NQPF has an enrichment ratio of no more than 0.25. MFIR gave an enrichment ratio of no more than 0.25. Work on CFMF yielded an enrichment ratio of no more than 0.25. MCDG gave an enrichment ratio of no more than 0.25. Variant PFPP has an enrichment ratio of 0.269. For AFYK, the enrichment ratio was no more than 0.25. With FPNY the enrichment ratio was no more than 0.25. In the case of LRFI, the enrichment ratio is reported as no more than 0.25. Work on SNPC yielded an enrichment ratio of no more than 0.25. DVWN showed an enrichment ratio of no more than 0.25. For DIGL, the enrichment ratio was no more than 0.25. For GNME, the enrichment ratio was no more than 0.25. PDIR was tested, and the enrichment ratio was no more than 0.25. GMFP gave an enrichment ratio of no more than 0.25. KNNL gave an enrichment ratio of no more than 0.25. In the case of DGCE, the enrichment ratio is reported as no more than 0.25. In the case of NFTC, the enrichment ratio is reported as no more than 0.25. With AIVA the enrichment ratio was 8.17. Work on TQYM yielded an enrichment ratio of no more than 0.25. For YYIQ, the enrichment ratio was no more than 0.25. Variant WPAM has an enrichment ratio of no more than 0.25. Work on HYWN yielded an enrichment ratio of no more than 0.25. With LILH the enrichment ratio was no more than 0.25. RASI gave an enrichment ratio of no more than 0.25. PAGT gave an enrichment ratio of no more than 0.25. Work on PGQE yielded an enrichment ratio of no more than 0.25. With YWPA the enrichment ratio was no more than 0.25. TKHR showed an enrichment ratio of no more than 0.25. DCIW showed an enrichment ratio of no more than 0.25. For KHNF, the enrichment ratio was no more than 0.25. Work on WIWV yielded an enrichment ratio of no more than 0.25. In the case of WYWQ, the enrichment ratio is reported as no more than 0.25. STEN showed an enrichment ratio of no more than 0.25. With NFEI the enrichment ratio was no more than 0.25. Variant MHRA has an enrichment ratio of no more than 0.25. Variant IEII has an enrichment ratio of no more than 0.25. VTSD was tested, and the enrichment ratio was no more than 0.25. Variant EHMD has an enrichment ratio of no more than 0.25. YTIM showed an enrichment ratio of 1.25. GDYQ showed an enrichment ratio of no more than 0.25. With IWTQ the enrichment ratio was no more than 0.25. MHNS was tested, and the enrichment ratio was no more than 0.25. EAYT gave an enrichment ratio of no more than 0.25. VLNH was tested, and the enrichment ratio was no more than 0.25. In the case of HCPM, the enrichment ratio is reported as no more than 0.25. QYSP showed an enrichment ratio of no more than 0.25. With PGKY the enrichment ratio was no more than 0.25. Variant NEAW has an enrichment ratio of no more than 0.25. IQSN gave an enrichment ratio of no more than 0.25. RMFK gave an enrichment ratio of no more than 0.25. Variant DPQK has an enrichment ratio of no more than 0.25. In the case of LGFD, the enrichment ratio is reported as 1.27. Work on GVWY yielded an enrichment ratio of no more than 0.25. RGYK was tested, and the enrichment ratio was no more than 0.25. In the case of AHWW, the enrichment ratio is reported as no more than 0.25. MGWI was tested, and the enrichment ratio was 1.07. In the case of YTVS, the enrichment ratio is reported as no more than 0.25. EASE was tested, and the enrichment ratio was no more than 0.25. RVDQ showed an enrichment ratio of no more than 0.25. Work on LNTK yielded an enrichment ratio of no more than 0.25. FMTR showed an enrichment ratio of no more than 0.25. With GCLM the enrichment ratio was 16.5. For NSNW, the enrichment ratio was no more than 0.25. Work on MGNM yielded an enrichment ratio of no more than 0.25. For FKRP, the enrichment ratio was no more than 0.25. Variant HYPD has an enrichment ratio of no more than 0.25. For ITCH, the enrichment ratio was no more than 0.25. In the case of GYMI, the enrichment ratio is reported as no more than 0.25. In the case of ADAC, the enrichment ratio is reported as 0.792. IFVS was tested, and the enrichment ratio was no more than 0.25. WQGM was tested, and the enrichment ratio was no more than 0.25. GLII gave an enrichment ratio of 0.337. YHCP showed an enrichment ratio of no more than 0.25. In the case of DGRW, the enrichment ratio is reported as no more than 0.25. For AMYD, the enrichment ratio was no more than 0.25. HDDQ was tested, and the enrichment ratio was no more than 0.25. VTVP showed an enrichment ratio of no more than 0.25. In the case of ARMF, the enrichment ratio is reported as no more than 0.25. Work on MHEY yielded an enrichment ratio of no more than 0.25. In the case of PITQ, the enrichment ratio is reported as no more than 0.25. QPGI was tested, and the enrichment ratio was no more than 0.25. QRDT gave an enrichment ratio of no more than 0.25. Variant AMRA has an enrichment ratio of no more than 0.25. Work on FEAD yielded an enrichment ratio of no more than 0.25. With HHRR the enrichment ratio was no more than 0.25.
